The other results are listed elsewhere or left out. Many values rest on one well or one pass, so single values are uncertain.
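Further: cells treated in 1,536-well plates, then fixed and DAPI-stained, with nuclei counted from automated high-throughput microscope images.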

This experiment concerns LB2518-MEL. The experiment is described as follows: cell count relative to DMSO control; melanoma cells; higher = more viable cells. The following applies: library dose: standard library concentration; 72 h.
The compound `Nc1ncn([C@H]2C[C@H](O)[C@@H](CO)O2)c(=O)n1` [decitabine] + O=C(Nc1ccccc1)c1cc([N+](=O)[O-])ccc1Cl [GW9662] (first compound 0.5 µM, partner dose 10 µM) returned a cell count of 96%.
Next, `Nc1ccn([C@@H]2O[C@H](CO)[C@@H](O)C2(F)F)c(=O)n1` [gemcitabine] + NC(=O)Nc1cc(-c2cccc(F)c2)sc1C(=O)N[C@H]1CCCNC1 [AZD7762] (first compound 0.002 µM, partner dose 0.1 µM): 37.9%; `Nc1nc(F)nc2c1ncn2[C@@H]1O[C@H](CO)[C@@H](O)[C@@H]1O` [fludarabine] + O=c1cc(-c2cccc3c2Sc2ccccc2S3)oc(N2CCOCC2)c1 [KU55933] (first compound 1 µM, partner dose 5 µM): 72.8%; `CC(=O)O[C@@]12CO[C@@H]1C[C@H](O)[C@@]1(C)C(=O)[C@H](O)C3=C(C)[C@@H](OC(=O)[C@H](O)[C@@H](NC(=O)OC(C)(C)C)c4ccccc4)C[C@@](O)([C@@H](OC(=O)c4ccccc4)[C@H]21)C3(C)C` [Docetaxel] + CO[C@H]1C[C@@H]2CC[C@@H](C)[C@@](O)(O2)C(=O)C(=O)N2CCCC[C@H]2C(=O)O[C@H]([C@H](C)C[C@@H]2CC[C@@H](OCCO)[C@H](OC)C2)CC(=O)[C@H](C)/C=C(\C)[C@@H](O)[C@@H](OC)C(=O)[C@H](C)C[C@H](C)/C=C/C=C/C=C/1C [everolimus] (first compound 0.0005 µM, partner dose 0.1 µM): 32.6%.
With `CC(=O)O[C@@]12CO[C@@H]1C[C@H](O)[C@@]1(C)C(=O)[C@H](O)C3=C(C)[C@@H](OC(=O)[C@H](O)[C@@H](NC(=O)OC(C)(C)C)c4ccccc4)C[C@@](O)([C@@H](OC(=O)c4ccccc4)[C@H]21)C3(C)C` [Docetaxel] + O=C(CCCCCCC(=O)Nc1ccccc1)NO [vorinostat] (first compound 0.0005 µM, partner dose 0.4 µM), the cell count was found to be 52.2%.
For `Nc1ccn([C@@H]2O[C@H](CO)[C@@H](O)C2(F)F)c(=O)n1` [gemcitabine] + c1cc(-c2cnn3cc(-c4ccc(OCCN5CCCCC5)cc4)cnc23)ccn1 [Dorsomorphin] (first compound 0.002 µM, partner dose 2 µM), the cell count stood at 64%.

For the origin of these results see the supplement of paper PMC4604168 (melanoma cell lines).
